In PubChem BioAssay (Tox21):
Several values for one entry are separate records, joined by “and”; a condition that tells them apart may be missing. Identical values can stand only once. The shares of active, inactive and inconclusive entries below differ from those in the screen. Potencies of inconclusive entries are doubtful fits and often do not repeat. Where a structure was tested more than once in an assay, its records may differ in their call. Activity calls are given as the source filed them. The call rests on the fitted dose curve; in most records, active means well fitted curve in the direction sought with a large enough effect in the repeat runs; inconclusive means weak or mixed curves; inactive means no such curve, though single readings can be large; an effect the other way counts as inactive or inconclusive.

Assays:
[1] = A CellTox Green Cytotoxicity Assay to monitor cytotoxicity in HepG2 cells - 32 hour (AID 1224883); further: nearly all actives have a fitted effect of over 50% in size
Procedure, shortened: (§1)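 Fluorescent DNA-binding dye, 600 HepG2 cells/well, 5 h preincubation then compound in DMSO; same plates read at 0–40 h, 37 C.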

[2] = qHTS RealTime-Glo MT Cell Viability Assay in HepG2 cells - 16 hour (AID 1224885); further: nearly all actives have a fitted effect of over 50% in size
Procedure, shortened: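 qHTS, HepG2, 600 cells/well, RealTime-Glo (NanoLuc + prosubstrate) added with cells; 5 h preincubation; DMSO compound addition; 37 C; luminescence at 0/8/16/24/32/40 h.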

[3] = qHTS RealTime-Glo MT Cell Viability Assay in HEK293 cells - 8 hour (AID 1224887); further: nearly all actives have a fitted effect of over 50% in size
Procedure, shortened: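 Measured as luminescence from the same continuously cultured HEK293 wells at successive time points (0, 8, 16, 24, 32, 40 h) after compound addition. Reagent present from seeding; dosing at 5 h; incubation 37 C.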

[4] = A CellTox Green Cytotoxicity Assay to monitor cytotoxicity in HepG2 cells - 8 hour (AID 1224890); further: nearly all actives have a fitted effect of over 45% in size
Procedure, shortened: as §1

[5] = qHTS assay to identify small molecule antagonists of the estrogen receptor alpha (ER-alpha) signaling pathway using the BG1 cell line in the presence of 0.1 nM 17-beta-estradiol - cell viability counter screen (AID 1259241); further: nearly all actives have a fitted effect of over 40% in size
Procedure, shortened: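 In this screen, hormone-deprived VM7Luc4E2 cells were seeded at 4,000 per well, dosed with compound and 0.1 nM estradiol final, and incubated 22 hr at 37C and 5% CO2; fluorogenic live-cell protease signal reported viability.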

[6] = qHTS RealTime-Glo MT Cell Viability Assay in HEK293 cells - 24 hour (AID 1224886); further: nearly all actives have a fitted effect of over 50% in size
Procedure, shortened: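 Assay medium contained NanoLuc luciferase plus cell-permeant prosubstrate, added with HEK293 cells at 600 cells/well. After 5 h at 37 C/5% CO2 compounds were added; plates stayed at 37 C for 40 h with serial luminescence reads.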
Potency means the concentration at half of the fitted maximal effect; tags describe the fitted curve by direction and shape.

Structure (SMILES) | Potency [1] | Potency [2] | Potency [3] | Potency [4] | Potency [5] | Potency [6]
CCN(CC)C(=S)SSC(=S)N(CC)CC | inconclusive: 219 nM [activator, full curve, poor fit] and inconclusive: 120 nM [activator, full curve, poor fit] | inconclusive: 219 nM [cytotoxic, full curve, poor fit] and inconclusive: 30.1 µM [cytotoxic, single point] | inconclusive: 13.4 µM [cytotoxic, full curve] | inconclusive: 61.6 µM [activator, partial curve, poor fit] | inconclusive: 193 nM [cytotoxic, full curve, poor fit] and inconclusive: 222 nM [cytotoxic] | 
CCOC(=O)[C@H](CCc1ccccc1)N[C@@H](C)C(=O)N1Cc2ccccc2C[C@H]1C(=O)O | inactive |  | inactive |  |  | 
Cc1oncc1C(=O)Nc1ccc(C(F)(F)F)cc1 | inconclusive: 54.9 µM [activator, single point] |  | inconclusive: 43.6 µM [cytotoxic, partial curve] |  |  | 
Cc1c(C)c2c(c(C)c1O)CCC(C)(COc1ccc(CC3SC(=O)NC3=O)cc1)O2 (configuration not stated) | inconclusive: 54.9 µM [activator, single point] |  | inconclusive: 43.6 µM [cytotoxic, partial curve] and inconclusive: 9.52 µM [cytotoxic, partial curve] |  |  | inconclusive: 9.52 µM [cytotoxic, partial curve]
